In paper PMC6919601, “Identification of Plasmodium dipeptidyl aminopeptidase allosteric inhibitors by high throughput screening” (PLoS ONE, 2019):
Screen size: about 110,000 compounds; about 230 (0.21%) showed an effect of 50% or more. The list shows a part of the results.

Target: DPAP1 (Plasmodium falciparum, UniProt Q8IIJ9)
Assay: primary screen, percent inhibition; read by cleavage of a fluorogenic dipeptide substrate; higher = more effect of the substance
Set-up: species or system P. falciparum D10 trophozoite lysates; single well
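Note: 30 min substrate incubation versus DMSO and 10 µM JCP410 controls.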

Chain of DPAP1 (Q8IIJ9 whole entry, looked up): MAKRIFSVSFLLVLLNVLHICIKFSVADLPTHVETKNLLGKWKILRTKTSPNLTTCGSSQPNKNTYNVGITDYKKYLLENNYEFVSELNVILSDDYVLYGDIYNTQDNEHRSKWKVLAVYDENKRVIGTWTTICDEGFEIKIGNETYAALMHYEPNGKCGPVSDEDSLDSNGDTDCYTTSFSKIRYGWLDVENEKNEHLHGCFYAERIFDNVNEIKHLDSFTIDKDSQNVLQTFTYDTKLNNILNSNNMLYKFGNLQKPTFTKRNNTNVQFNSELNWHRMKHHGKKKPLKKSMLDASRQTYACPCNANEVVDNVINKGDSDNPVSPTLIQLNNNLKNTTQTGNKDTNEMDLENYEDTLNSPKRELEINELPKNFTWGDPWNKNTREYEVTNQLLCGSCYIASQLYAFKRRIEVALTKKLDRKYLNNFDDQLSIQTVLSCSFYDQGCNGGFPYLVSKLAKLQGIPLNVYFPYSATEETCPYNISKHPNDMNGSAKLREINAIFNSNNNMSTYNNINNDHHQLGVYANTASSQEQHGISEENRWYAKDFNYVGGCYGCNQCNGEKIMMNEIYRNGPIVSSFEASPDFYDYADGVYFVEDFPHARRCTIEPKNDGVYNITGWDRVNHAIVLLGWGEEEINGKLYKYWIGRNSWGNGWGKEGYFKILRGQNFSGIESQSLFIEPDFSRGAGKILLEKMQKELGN

Compound	% Inhibition @ 10 uM [%]
Cc1cc(C(=O)N2CCN(Cc3ccc4c(c3)OCO4)CC2)on1	3.2
Cc1ccc(NC2=C(Cl)C(=O)N(c3ccccc3)C2=O)cc1	-1.06
COc1cccc(C2=NS(=O)(=O)N(C)C(C(=O)Nc3cc(C)on3)=C2)c1	3.92
COc1cccc(-c2ccc(C#N)c(SCC(=O)Nc3cccc(F)c3)n2)c1	-2.45
N#CCOc1ccccc1-c1c(Cl)nc(Cl)c(=O)n1-c1ccccc1	-0.25
COc1cccc(C2CC(C(F)(F)F)n3ncc(C(=O)N4CCc5ccccc5C4)c3N2)c1 (stereo not drawn)	1.72
CN1C(C(=O)N2CCC3(CC2)OCCO3)=CC(c2ccc(F)cc2)=NS1(=O)=O	0.655
COC(=O)/C(=C/c1ccc2c(c1)OCO2)NC(=O)c1ccccc1Br	-5.51
Cc1cc(=O)oc(C)c1C(=O)NCCN(C)Cc1ccccc1	2.79
CCOC(=O)N1CCN(C(=O)c2cc(-c3ccc(CC)cc3)[nH]n2)CC1	2.37
O=C(Nc1cccnc1)c1ccc(COCC(F)(F)F)cc1	-1.33
Cc1nnc2n1N=C(c1ccc(-c3cc(Cl)cc(Cl)c3)o1)CS2	0.0289
FC(F)(F)c1cccc(CN2CCN(Cc3ccccc3)CC2)c1	-3.56
O=C(Cn1ncc2c(Cl)cccc21)N1CCc2ccccc2C1	3.84
CN1CCN(S(=O)(=O)c2ccc(Nc3cccc(C(F)(F)F)c3)nc2)CC1	-3.56
CCOc1ccc(CSc2nnc(-c3cccnc3)n2-c2ccccc2)cc1	3.27
CC[C@H](NC(=O)[C@H](Cn1cccn1)NC(=O)c1ccc(-c2ccccc2Cl)cc1)C(=O)c1nc2ccccc2o1	-8.81
COc1ccc(S(=O)(=O)Nc2ccccc2C(C)C)cc1OC	-5.13
COC(=O)C1=C(NC(=O)c2cccc(C)c2)CCS1	-3.69
CCC1CCCCN1CCNC(=O)C1CCN(S(=O)(=O)c2cccc3nsnc23)CC1 (stereo not drawn)	-9.18
CCCC(=O)Nc1cccc(C(=O)NCC(C)C)c1	-2.94
CC1CCc2c(sc(NC(=O)C(C)Oc3cccc(Cl)c3)c2C(N)=O)C1 (stereo not drawn)	2.45
CCOC(=O)N1CCN(C(=O)C2CC(=O)N(Cc3ccc(OC)cc3)C2)CC1 (stereo not drawn)	-5.43
O=C(NCc1nnc(S)n1-c1ccccc1)c1ccccc1F	4.95
Cc1ccc(C2CC(=O)NC(SCC(=O)Nc3ccccc3C)=C2C#N)cc1 (stereo not drawn)	2.84
Cc1cc(Cl)ccc1N(CC(=O)NCc1ccccc1)S(C)(=O)=O	-10.5

Compound	% Inhibition @ 10 uM [%]
COc1cc2c3c(c1OC)C1(C=CC(=O)C=C1)CC3N(C(=O)CCC(=O)O)CC2 (stereo not drawn)	-1.33
Cc1ccc(/C=C(\C#N)c2nc(-c3ccc(Br)cc3)cs2)cc1	-0.268
CCCc1nc(N)c(C#N)c(-c2ccc(Cl)cc2)c1CC	4.38
COc1ccc(C)cc1NCc1ccc(SC)cc1	2.36
CC1=C(C(N)=O)C(c2ccc(OCc3ccccc3)cc2)n2ncnc2N1 (stereo not drawn)	-7.35
COc1cc(C2CC(C(F)(F)F)n3ncc(C(=O)N4CCCCC4)c3N2)cc(OC)c1OC (stereo not drawn)	0.147
CC(C)(C)NC(=O)c1ccccc1-c1ccccc1C(=O)O	4.63
Cc1cc(C(=O)Nc2cccnc2Cl)no1	-1.84
O=C(NCc1nnc(S)n1-c1cccc(Cl)c1)c1ccc(S(=O)(=O)N2CCOCC2)cc1	22.9
COc1cc(CNCCO)cc(Cl)c1OCc1ccccc1F	-6.27
COc1ccc(-c2nonc2NC(=O)CC(C)C)cc1	-6.56
COc1cccc(C(=O)N(Cc2ccc(N(C)C)cc2)C2CCS(=O)(=O)C2)c1 (stereo not drawn)	2.92
O=C(Nc1cccc([N+](=O)[O-])c1)c1cccc(S(=O)(=O)Nc2ccc(Br)cc2)c1	1.64
COc1cccc(S(=O)(=O)Nc2ccc(C(=O)N3CCC(Cc4ccccc4)CC3)cc2)c1	-7.16
CNC(=O)Cn1nc(C)n2c(cc3c(OC)cccc32)c1=O	-7.22
O=C(c1ccc(CSc2ccc(Oc3ccccc3)cc2)cc1)N1CCOCC1	1.42
Cc1cc(N2CCN(c3ccccc3)CC2)nc(-c2ccccc2O)n1	-7.19
CCN(CC)CC#CC(C)(C)OC(C)=O	-6.18
COc1ccc2cc(C(=O)O)n(CC(=O)c3ccccc3)c2c1	-5.37
Cc1ccc(-n2nc(C(=O)O)c(C)c(C#N)c2=O)cc1Cl	4.28
COc1ccc(C(=O)Nc2ccc(Cl)cc2C)cc1	0.273
COc1cccc(N2C(=O)C3CC=CCC3C2=O)c1 (stereo not drawn)	-8.07
c1ccc(CNC2CCCc3ccccc32)nc1 (stereo not drawn)	3.82
CCOc1ccc(C(=O)NC(C)C23CC4CC(CC(C4)C2)C3)cc1 (stereo not drawn)	0.316
Cc1[nH]c2ccccc2c1CCNS(=O)(=O)c1ccc2oc(=O)ccc2c1	-5.53
Clc1ccc2nc(NCc3ccc4c(c3)OCO4)c3nncn3c2c1	2.76

Compound	% Inhibition @ 10 uM [%]
CC(C)Oc1ccc(C(=O)N(Cc2cccc(F)c2)C2CCS(=O)(=O)C2)cc1 (stereo not drawn)	-3.12
Cc1cc(=O)n2nc(N(C)CC(=O)NCCc3cccs3)sc2n1	3
Cc1c(Br)c(C(F)(F)F)nn1CC(=O)N1CCc2ccccc2C1	-1.35
NS(=O)(=O)c1cc(C(=O)Nc2ccccc2)ccc1Br	-4.08
Cc1ccc2c(c1)c1c3n2CC(=O)N(C(C)c2ccccc2)C3CCC1 (stereo not drawn)	3.47
CC[C@H](NC(=O)[C@H](CC(C)C)NC(=O)N1CCOCC1)C(=O)C(=O)NCc1ccccc1	-0.214
Cc1ccc(NC(=O)c2cccc([N+](=O)[O-])c2C)cc1Cl	-7.11
Cc1ccn(-c2ccc3cc(-c4ccccc4)c(=O)oc3c2)n1	-5.65
C/C(Cl)=C/CSc1nc2c(c(=O)[nH]c(=O)n2C)n1C/C=C(/C)Cl	4.09
Cc1ccnc(NC(=O)CSc2nnc3c4ccccc4n(C)c3n2)c1	-3.69
CCCNC(=O)CN(c1ccc(OC)cc1)S(C)(=O)=O	-2.74
O=C1N/C(=C/c2ccc(N3CCCC3)c(F)c2)C(=O)N1Cc1ccccc1F	0.161
CCOc1cc(C(=O)NCCn2c(C)cc3ccccc32)cc(OCC)c1OCC	-2.24
CCCOc1ccc(C(O)(CCN2CCCCC2)c2ccccc2OC)cc1 (stereo not drawn)	1.84
COc1ccc(N2C(=O)CSC2c2ccc(Cl)cc2)cc1 (stereo not drawn)	3.53
CCN1CCCC1CNC(=O)c1cc2c(-c3ccc(Cl)cc3)nn(C)c2s1 (stereo not drawn)	-8.9
C=CCn1c(CCCNC(=O)c2ccc(OC)c(OC)c2)nc2ccccc21	0.121
Cc1cc2cc(OCC(=O)O)ccc2n1C	3.88
O=C(NCCOCc1ccccc1)C(c1ccccc1)c1ccccc1	20.5
COc1cccc(C(O)(c2ccccn2)c2ccccn2)c1	8.81
CCOc1ccc(C(=O)NCCc2ccc(S(N)(=O)=O)cc2)cc1	0.323
CCOc1ccc2oc(=O)cc(CN(Cc3ccco3)CC3CCCO3)c2c1 (stereo not drawn)	-1.71
Cc1nnc(O)nc1NCCCN(C)C	-4.84
c1ccc(-c2cc(-c3ccccc3)nc(N3CCCCC3)n2)cc1	-0.969
O=C(Nc1ccccc1Cl)c1cccc(Br)c1	-1.92
O=C(Nc1ccc(Cl)cc1F)C1CC(=O)N(c2ccc(Br)cc2)C1 (stereo not drawn)	4.05

Compound	% Inhibition @ 10 uM [%]
Cc1ccc2c(Cl)c(C(=O)Nc3cc(=O)n(C)c(=O)n3C)sc2c1	-2.8
O=c1c2c([nH]c(=S)n1-c1ccccc1)-c1ccccc1CC21CCCC1	-0.712
Cc1ccc(-c2noc(CCC(=O)NCCc3cccc(C)c3)n2)cc1	2.42
COCCCN1C(=O)C(O)=C(C(=O)c2ccc(C)cc2)C1c1ccccc1 (stereo not drawn)	-3.34
CCOc1cc(Br)ccc1S(=O)(=O)N1CCC(C(N)=O)CC1	-7.17
CCN(CC)/C(=N\O)c1ccc(Br)cc1	-2.63
Clc1ccccc1OCCCCN1CCCCC1	3
CSc1sc(SC)c(C[n+]2ccccc2)c1C[n+]1ccccc1	1.66
O=C(c1cc(Cl)cc(Cl)c1)N1CCCCCC1	3
CCN1CCCC1CNC(=O)Cn1cc2c(n1)CCC(C)C2 (stereo not drawn)	4.95
COC(=O)C1CCCN1Cc1ccc(Cl)cc1 (stereo not drawn)	3.15
Cc1c(C(=O)Nc2ccccc2)sc2nc3n(c(=O)c12)CCCCC3	-3.71
Cc1cc(NC(=O)CSc2nc3c(c(=O)n2CCc2ccccc2)SC(C)C3)no1 (stereo not drawn)	-2.32
Cc1nc(N2CCOCC2)c2ccccc2n1	2.25
O=C(CCC1CCCCC1)N1CCN(Cc2ccccc2)CC1	-2.2
COc1cc(OC)cc(-c2cc3nc(C)c(CCC(=O)Nc4nc(C)cs4)c(C)n3n2)c1	-4.1
CC(=O)c1cc(C#N)c(SCc2c(F)cccc2Cl)nc1C	-7.55
Cn1c2c(c(=O)n(C)c1=O)C(c1ccccc1)C(C#N)=C(N)O2 (stereo not drawn)	-0.996
COc1ccc(C(=O)Nc2ccccc2NC(=O)c2ccc(OC)cc2)cc1	-2.98
C1=C(CCNCc2ccccc2)CCCC1	3.05
O=C(COc1ccc(Cl)cc1Cl)Nc1ccc(S(=O)(=O)N2CCCC2)cc1	3.96
CCCCn1c(C(CCSC)NC(=O)c2ccccc2)nc2ccccc21 (stereo not drawn)	-1.82
CCc1ccc(CNc2nc3nc(C)c(Cl)c(C)n3n2)cc1	2.62
COc1ccc(-c2nc3cc(C(=N)NC(C)C)ccc3n2C)cc1OC	2.27
